From a compilation of properties of binary mixtures (doi:10.1016/j.jiec.2013.02.010)
The densities may have been worked out from excess volumes.

Assay: xn = mol fraction of the nth substance listed
Conditions: 298.15 K, 101 kPa

**Q.** With `CO` + CCCC[n+]1ccn(C)c1.[Cl-] as the compound, how does the mass density (x1 = 1) read?
**A.** The mass density was 785.1 kg/m3.

**Q.** Which mass density (x2 = 0.4991) does the source give for `CCCC[n+]1ccn(C)c1.[Cl-]` + CCO here?
**A.** The mass density was 1009.4 kg/m3.

**Q.** What about the mass density (x2 = 0.5533) of the same compound?
**A.** The mass density was 996.6 kg/m3.

**Q.** What about the mass density (x2 = 0.6011) of the same compound?
**A.** Its mass density is 983.5 kg/m3.

**Q.** What about the mass density (x2 = 0.9) of the same compound?
**A.** The mass density was 861.5 kg/m3.

**Q.** What about the mass density (x2 = 0.9501) of the same compound?
**A.** The mass density was 827.5 kg/m3.

**Q.** And the mass density (x2 = 0.975)?
**A.** Its mass density is 808.2 kg/m3.

**Q.** With `CCO` + CCCC[n+]1ccn(C)c1.[Cl-] as the compound, how does the mass density (x1 = 1) read?
**A.** The mass density was 786.7 kg/m3.

**Q.** Which mass density (x1 = 1) does the source give for `CC#N` + CCCC[n+]1ccn(C)c1.[Cl-] here?
**A.** The mass density was 776.7 kg/m3.

**Q.** Which results are given for `CCCC[n+]1ccn(C)c1.[Cl-]` + CC#N?
**A.** mass density (x2 = 0.502): 1021.2 kg/m3; mass density (x2 = 0.5483): 1011.6 kg/m3; mass density (x2 = 0.6038): 998.1 kg/m3; mass density (x2 = 0.7021): 968.2 kg/m3; mass density (x2 = 0.9002): 869.7 kg/m3; mass density (x2 = 0.9499): 829.1 kg/m3; mass density (x2 = 0.975): 804.9 kg/m3

**Q.** Which mass density (x2 = 0.501) does the source give for `CCCC[n+]1ccn(C)c1.[Cl-]` + CN(C)C=O here?
**A.** Its mass density is 1045.6 kg/m3.

**Q.** And the mass density (x2 = 0.6134)?
**A.** Its mass density is 1032.4 kg/m3.

**Q.** What about the mass density (x2 = 0.6994) of the same compound?
**A.** The mass density was 1020.4 kg/m3.

**Q.** And the mass density (x2 = 0.8017)?
**A.** Its mass density is 1001.6 kg/m3.

**Q.** And the mass density (x2 = 0.9)?
**A.** The mass density was 978 kg/m3.

**Q.** What about the mass density (x2 = 0.9502) of the same compound?
**A.** Its mass density is 963.1 kg/m3.

**Q.** Which mass density (x2 = 0.5213) does the source give for `CCCC[n+]1ccn(C)c1.[Cl-]` + CO here?
**A.** Its mass density is 1026.7 kg/m3.

**Q.** What about the mass density (x2 = 0.5458) of the same compound?
**A.** Its mass density is 1021.6 kg/m3.

**Q.** And the mass density (x2 = 0.5925)?
**A.** The mass density was 1012.5 kg/m3.

**Q.** What about the mass density (x2 = 0.7996) of the same compound?
**A.** The mass density was 947.8 kg/m3.

**Q.** And the mass density (x2 = 0.9007)?
**A.** The mass density was 889.3 kg/m3.

**Q.** What about the mass density (x2 = 0.95) of the same compound?
**A.** Its mass density is 846.9 kg/m3.

**Q.** And the mass density (x2 = 0.975)?
**A.** Its mass density is 819.2 kg/m3.

**Q.** Which mass density (x2 = 0.4982) does the source give for `CCCC[n+]1ccn(C)c1.[Cl-]` + O here?
**A.** Its mass density is 1082.8 kg/m3.

**Q.** What about the mass density (x2 = 0.5535) of the same compound?
**A.** Its mass density is 1082 kg/m3.

**Q.** And the mass density (x2 = 0.8999)?
**A.** The mass density was 1049.3 kg/m3.

**Q.** What about the mass density (x2 = 0.9502) of the same compound?
**A.** Its mass density is 1028.9 kg/m3.

**Q.** And the mass density (x2 = 0.975)?
**A.** The mass density was 1014.6 kg/m3.
